The list shows a part of the results. The full chains were built here from the parent and the listed change. Inactive controls read about 0.05.
B1: TEV protease; numbered along this chain (parent)
chain: MGESLFKGPRDYNPISSSICHLTNESDGHTTSLYGIGFGPFIITNKHLFRRNNGTLVVQSLHGVFKVKDTTTLQQHLVDGRDMIIIRMPKDFPPFPQKLKFREPQREERICLVTTNFQTKSMSSMVSDTSCTFPSGDGIFWKHWIQTKDGQCGSPLVSTRDGFIVGIHSASNFTNTNNYFTSVPKNFMELLTNQEAQQWVSGWRLNADSVLWGGHKVFMVKPEEPFQPVKEATQL

Variants of: B1
Assay: raw area under fraction-flipped curve 0-4 h after induction (AUC4h, not background-subtracted), DNA-recorder readout of cleavage of the substrate (dimensionless); higher = more cleavage of the substrate by the protease variant
Conditions: temperature: 34 °C; time window: 0-4 h after rhamnose induction
Protocol: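 In vivo DNA recorder in E. coli TOP10(DE3) ΔrhaA at 34 °C. Each TEVp single-site mutant (parent TEVp 0) is paired with a single-site variant of the 7-mer TEVs (canonical ENLYFQ|S). The substrate sits between flexible linkers in a Bxb1-sfGFP-TEVs-SsrA fusion, so cleavage stabilises Bxb1 and speeds flipping of a recombination array, read by NGS. The value is the raw area under the fraction-flipped curve over 0-4 h after rhamnose induction (AUC4h), with ≥20 reads per time point. It is not background-subtracted; inactive controls average about 0.047.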
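Further: Bxb1 expression induced with 0.2% (w/v) L-rhamnose at OD600 near 0.5, cultures sampled hourly, flipped fraction per protease–substrate barcode pair counted by paired-end Illumina sequencing.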

| Variant | area with substrate ENLYCQS | area with substrate ENLYEQS | area with substrate ENLYGQS | area with substrate ENLYHQS | area with substrate ENLYIQS | area with substrate ENLYKQS | area with substrate ENLYMQS | area with substrate ENLYNQS | area with substrate ENLYQQS | area with substrate ENLYSQS | area with substrate ENLYTQS | area with substrate ENLYVQS | area with substrate ENLYWQS | area with substrate ENLYDQS | area with substrate ENLYLQS | area with substrate ENLYPQS | area with substrate ENLYRQS | area with substrate ENLYYQS |
| --- | --- | --- | --- | --- | --- | --- | --- | --- | --- | --- | --- | --- | --- | --- | --- | --- | --- | --- |
| MGESLFKGPRDYNPISSSICHLTNESDGHTTSLYGIGFGPFIITNKHLFRRNNGTLVVQSLHGVFKVKDTTTLQQHLVDGRDMIIIRMPKDFPPFPQKLKFREPQREERICLVTTNFQTKSMSSMVSDTSCTFPSGDGIFRKHWIQTKDGQCGSPLVSTRDGFIVGIHSASNFTNTNNYFTSVPKNFMELLTNQEAQQWVSGWRLNADSVLWGGHKVFMVKPEEPFQPVKEATQL [W141R] | 0.0508 | 0.0507 | 0.039 | 0.0566 | 0.0453 | 0.0658 | 0.0509 | 0.059 | 0.0727 | 0.0537 | 0.0321 | 0.0622 | 0.0577 | – | – | – | – | – |
| MGESLFKGPRDYNPISSSICHLTNESDGHTTSLYGIGFGPFIITNKHLFRRNNGTLVVQSLHGVFKVKDTTTLQQHLVDGRDMIIIRMPKDFPPFPQKLKFREPQREERICLVTTNFQTKSMSSMVSDTSCTFPSGDGIFWKHWIQTKDGQCGSPGVSTRDGFIVGIHSASNFTNTNNYFTSVPKNFMELLTNQEAQQWVSGWRLNADSVLWGGHKVFMVKPEEPFQPVKEATQL [L156G] | 0.0787 | 0.0585 | 0.042 | 0.0579 | – | 0.058 | – | 0.0716 | 0.0526 | 0.049 | 0.055 | 0.0555 | 0.0892 | 0.0489 | 0.0643 | 0.0598 | – | – |
| MGESLFKGPRDYNPISSSICHLTNESDGHTTSLYGIGFGPFIITNKHLFRRNNGTLVVQSLHGVFKVKDTTTLQQHLVDGRDMIIIRMPKDFPPFPQKLKFREPQREERICLVTTNFQTKSMSSMVSDTSCTFPSGDGIFWKHWIQTKDGQCGSPLVSTRDGFIVGIHSASNFTNTNNYFTSVPKNFMELLTNQEAQQWVSGWRLNADSVLWGGHKVFMVKPEEPFQPMKEATQL [V229M] | 0.081 | 0.0654 | 0.0416 | 0.0578 | – | 0.0709 | – | 0.0747 | 0.0674 | 0.0742 | 0.0878 | 0.117 | – | – | – | 0.0714 | 0.0531 | 0.0675 |
| MGESLFKGPRDYNPISSSICHLTNESDGHTTSLYGIGFGPFIITNKHLFRRNNGTLVVQSLHGVFKVKDTTTLQQHLVDGRDMIIIRMPKDFPPFPQKLKFREPQREERICLVTTNFQTKSMSSMVSDTSCTFPSGDGIFWKHWIQTKDGQCGSPLVSTPDGFIVGIHSASNFTNTNNYFTSVPKNFMELLTNQEAQQWVSGWRLNADSVLWGGHKVFMVKPEEPFQPVKEATQL [R160P] | 0.062 | 0.0522 | 0.0609 | 0.0861 | 0.0898 | 0.0318 | 0.0731 | 0.056 | 0.0602 | 0.084 | – | 0.074 | – | 0.0712 | – | 0.0632 | 0.0685 | 0.0639 |
| MGESLFKGPRDYNPISSSICHLTNESDGHTTSLYGIGFGPFIITNIHLFRRNNGTLVVQSLHGVFKVKDTTTLQQHLVDGRDMIIIRMPKDFPPFPQKLKFREPQREERICLVTTNFQTKSMSSMVSDTSCTFPSGDGIFWKHWIQTKDGQCGSPLVSTRDGFIVGIHSASNFTNTNNYFTSVPKNFMELLTNQEAQQWVSGWRLNADSVLWGGHKVFMVKPEEPFQPVKEATQL [K46I] | 0.0683 | 0.0594 | 0.0576 | 0.0651 | 0.0738 | 0.0619 | 0.0633 | 0.0656 | 0.0661 | 0.0733 | – | 0.0543 | 0.0629 | 0.0578 | – | 0.0647 | 0.0658 | – |
| MGESLFKGPRDYNPISSSICHLTNESDGHTTSLYGIGFGPFIITNKHLFRRNNGTLVVQSLHGVFKVKDTTTLQQHLVDGRDMIIIRMPKDFPPFPQKLKFREPQREERICLVTTNFQTKSMSSMVSDTSCTFPSGDGIFWKHWIQTKDGQCGSPLVSTRDGFIVGIHSASNFTNTNNYFTSVPKNFEELLTNQEAQQWVSGWRLNADSVLWGGHKVFMVKPEEPFQPVKEATQL [M188E] | 0.0896 | 0.0635 | 0.0587 | 0.0626 | 0.143 | – | – | 0.0639 | 0.0719 | 0.0827 | – | 0.123 | 0.0799 | 0.0649 | – | – | – | 0.075 |
| MGESLFKGPRDYNPISSSICLLTNESDGHTTSLYGIGFGPFIITNKHLFRRNNGTLVVQSLHGVFKVKDTTTLQQHLVDGRDMIIIRMPKDFPPFPQKLKFREPQREERICLVTTNFQTKSMSSMVSDTSCTFPSGDGIFWKHWIQTKDGQCGSPLVSTRDGFIVGIHSASNFTNTNNYFTSVPKNFMELLTNQEAQQWVSGWRLNADSVLWGGHKVFMVKPEEPFQPVKEATQL [H21L] | 0.0829 | 0.0617 | 0.0613 | 0.0793 | 0.0882 | 0.0698 | 0.0957 | 0.051 | – | – | – | – | – | 0.0407 | – | 0.0616 | – | – |
| MGESLFKGPRDYNPISSSICHLTNESDGHTTSLYGIGFGPFIITNKHLFRRNNGTLVVQSLHHVFKVKDTTTLQQHLVDGRDMIIIRMPKDFPPFPQKLKFREPQREERICLVTTNFQTKSMSSMVSDTSCTFPSGDGIFWKHWIQTKDGQCGSPLVSTRDGFIVGIHSASNFTNTNNYFTSVPKNFMELLTNQEAQQWVSGWRLNADSVLWGGHKVFMVKPEEPFQPVKEATQL [G63H] | 0.0846 | 0.0553 | 0.0697 | 0.0709 | 0.131 | 0.0916 | 0.0744 | 0.0655 | – | – | 0.0756 | – | – | 0.062 | – | 0.0598 | 0.0602 | 0.0597 |
| MGESLFKGPRDYNPISSSICHLTNESDGHTTSLYGIGFGPFIITNKHLFRRNNGTLVVQSLHGVFKVKDTTTLQQHLVDGRDMIIIRMPKDFPPFPQKLKFREPQREERICLVTTNFQTKSMSSMVSDTSCTFPSGDGIFWKHWIQTKDGQCGSPLVSTRDGFIVGIHSASNFTNTNNYFTSVPKNFMELLTNQEAQQWVSGWRLNNDSVLWGGHKVFMVKPEEPFQPVKEATQL [A207N] | 0.0867 | 0.0533 | 0.065 | 0.0671 | – | 0.0609 | 0.103 | 0.0579 | 0.0657 | 0.0697 | 0.118 | 0.114 | 0.0692 | 0.0624 | – | 0.0732 | 0.0597 | – |
